These results are taken from ChEMBL document CHEMBL4888484, “Replenishing the malaria drug discovery pipeline: Screening and hit evaluation of the MMV Hit Generation Library 1 (HGL1) against asexual blood stage Plasmodium falciparum ,using a nano luciferase reporter read-out” (2022).

Screen size: about 150,000 compounds; about 540 (0.36%) showed an effect of 50% or more. The list shows a part of the results.

This assay has as its system Plasmodium falciparum. Description: Primary screen in NF54 nanoGlo assay, in single point, at 2uM, 72h; a lower Z score goes with more inhibition. It is filed as functional, Erythrocyte. To be noted: timepoint 72 hour.
For `CC(C)(C)c1ccc(OCC(=O)N2CCCC[C@@H]2CCN2CCCCC2)cc1`, the “% Inhibition” value was -4% and the Z score worked out at 0.6.

For the molecule `c1ccc2c(c1)ncn2[C@H]1CCN(c2cc(C3CCC3)ncn2)C1`, the “% Inhibition” value is -7% and the Z score came to 1.37.

For `C[C@@H]1Oc2ccc(NC(=O)CCC(=O)c3ccc(Cl)cc3)cc2NC1=O`, the “% Inhibition” value is given as -7% and the Z score is given as 0.86.

For `Cc1noc2ncnc(NC[C@@H]3C[C@H](CO)N(C)[C@@H]3c3ccccc3F)c12`, the “% Inhibition” value is listed as -25% and the Z score amounted to 2.22.

In the case of `C=CCC(O)(CC=C)CNC(=O)C1(N)CCCC1`, the “% Inhibition” value is listed as -5% and the Z score was 0.61.

Consider `Cc1cc(NCc2ccc(S(N)(=O)=O)cc2C)nc(C2CCC2)n1`, for which the “% Inhibition” value is -11% and the Z score came out at 1.74.

`Cc1cc(F)ccc1S(=O)(=O)N1CC[C@H](c2ncccn2)C1`: the “% Inhibition” value is given as -18% and the Z score came out at 2.21.

With `COCCc1noc(COc2cccnc2C)n1`, the “% Inhibition” value is reported as -1% and the Z score stood at 0.1.

As to `CCN1C(=O)CC[C@H](C(=O)N2CC(F)C2)[C@H]1c1ccncc1`, the “% Inhibition” value was -7% and the Z score was 1.41.

`CCCCCOc1ccc(C2(C)C(=O)N(CN3CCOCC3)C(=O)C2CN2CCOCC2)cc1` (centres undefined): the “% Inhibition” value was determined as 3% and the Z score is -0.43.

Take `CCCN(Cc1c(-c2cccc(C)c2)noc1N1CCOCC1)C(=O)c1ccccc1`: the “% Inhibition” value is on record as 1% and the Z score is reported as -0.14.

Consider `COC[C@@](C)(C#N)NC(=O)c1cc(C)c(Br)c(Cl)c1`, for which the “% Inhibition” value is -10% and the Z score worked out at 1.74.

For the molecule `Cn1ccnc1[C@@H](NCc1c(F)cccc1F)C1CC1`, the “% Inhibition” value is on record as -5% and the Z score came out at 0.67.

In the case of `CCn1ccnc1CN(C)C(=O)c1coc(CN2CCN(Cc3ccccc3)CC2)n1`, the “% Inhibition” value was found to be 8% and the Z score is given as -1.03.

As for `C=C(C)C[C@H](C)C(=O)Nc1nncn1C`, the “% Inhibition” value is reported as 0% and the Z score is -0.04.

Turning to `Cc1oc(C#N)cc1C(=O)N1CCOCC12CC2`, the “% Inhibition” value is 17% and the Z score is reported as -1.98.

Consider `O=C(NCC1CCN(Cc2ccccc2F)CC1)[C@H]1CCCN(c2nc3ccc(Cl)cc3[nH]2)C1`, for which the “% Inhibition” value is given as -1% and the Z score is 0.24.

Consider `COCCN(Cc1ccc(C)s1)C(=O)c1cc(C(F)(F)F)n[nH]1`, for which the “% Inhibition” value is 5% and the Z score is -0.44.

As for `O=C(c1cc(F)ccc1F)N1CCC[C@@]2(C1)NC(=O)N(Cc1ccccc1)C2=O`, the “% Inhibition” value is -9% and the Z score turned out to be 1.03.

With `COCC(=O)N1CCCCC[C@H]1c1noc(-c2ccc(F)cc2)n1`, the “% Inhibition” value is reported as -15% and the Z score came to 1.72.

`CC(NC(=O)C(C)C1CC1)c1nn(C)cc1O` (centres undefined): the “% Inhibition” value is given as 21% and the Z score was -2.69.

`CCOc1ccc(CN[C@H]2CCCO[C@@H]2c2cnn(CC)c2)nc1`: the “% Inhibition” value is -13% and the Z score was found to be 2.7.

For `CS(=O)(=O)N[C@H]1[C@H](NC(=O)c2ncc(F)cc2F)[C@@H]2CCO[C@@H]21`, the “% Inhibition” value stood at 13% and the Z score is -1.74.

For `COc1ccc(OC)c(S(=O)(=O)N2CC3(C[C@H](CC(=O)NCC4CC4)CO3)C2)c1`, the “% Inhibition” value is reported as -10% and the Z score was 1.61.

On to `Cc1nnc(N(C)CCCNC(=O)OC(C)(C)C)s1`, for which the “% Inhibition” value came out at 2% and the Z score was -0.38.

Regarding `O=C(NCc1cccnc1-c1ccsc1)c1ccc(-c2cccs2)cc1`, the “% Inhibition” value worked out at 6% and the Z score is -0.96.

As to `CC(C)=CCN1CC2(CCN(c3ncc(Cl)cc3F)CC2)CC1=O`, the “% Inhibition” value is on record as -3% and the Z score turned out to be 0.57.

`Cc1cc(C(=O)NC[C@]2(O)CCCN(S(=O)(=O)N(C)C)CC2)c(C)o1`: the “% Inhibition” value was -7% and the Z score amounted to 0.92.

For the molecule `O=C([C@H]1CC(=O)N(C2CCCC2)C1)N1CCc2[nH]c3ccc(F)cc3c2C1`, the “% Inhibition” value was determined as 15% and the Z score was -1.45.

As for `COc1ccccc1CC(=O)NCc1ccccc1CN1CCC[C@H](C)C1`, the “% Inhibition” value is -2% and the Z score was determined as 0.37.

Consider `CCc1cc(C(=O)N[C@H]2CCN(C3CCCCC3)C2)n(C)n1`, for which the “% Inhibition” value was -4% and the Z score came to 0.86.

As to `O=C(CN(Cc1cccc(O)c1)C1CCC(O)CC1)N1CCOCC1` (centres undefined), the “% Inhibition” value stood at 0% and the Z score is listed as -0.03.

Take `Nc1nc(N)nc(OCC(F)(F)C(F)(F)C(F)(F)C(F)(F)C(F)(F)C(F)(F)F)n1`: the “% Inhibition” value was -1% and the Z score was found to be 0.16.

As to `CC(C)Cc1nnc(NC(=O)C2CC3C=CC2C3)s1` (centres undefined), the “% Inhibition” value is 27% and the Z score is listed as -3.1.

With `CCC(C)c1ccc(C(CC)NC(C)=O)cc1` (centres undefined), the “% Inhibition” value is given as -17% and the Z score is on record as 2.27.

`COc1ccc(-c2nnc(NC(=O)[C@H](C)NC(=O)Nc3ccc(OC)cc3OC)s2)cc1`: the “% Inhibition” value came to 2% and the Z score is -0.24.

For `C[C@@H](Cc1ccc(OC(F)(F)F)cc1)C(=O)NCc1nccn1C`, the “% Inhibition” value came out at 6% and the Z score is reported as -0.82.

Take `C=CCNC(=O)COCc1cc(-c2ccco2)on1`: the “% Inhibition” value is given as -3% and the Z score came out at 0.34.

With `O=C(NC[C@H]1O[C@@H](CC(=O)N2CCN(c3ccc(F)cc3)CC2)[C@H](O)[C@@H]1O)c1cccc(F)c1`, the “% Inhibition” value is recorded as 31% and the Z score is on record as -3.54.

For `COc1nc2c(c(C)nn2-c2ccc(C)cc2)c(C)c1CCC(=O)Nc1cccnc1`, the “% Inhibition” value is on record as -7% and the Z score came out at 0.95.

`CC(C)(CNC(=O)c1cnc2cc[nH]c2c1)C1CCOCC1`: the “% Inhibition” value is 3% and the Z score is recorded as -0.45.

`Cn1cc(Cl)cc1C(=O)N1CCC(n2cn[nH]c2=O)CC1`: the “% Inhibition” value is given as -8% and the Z score was 0.8.

The % Inhibition is the drop in the measured response relative to a control, in per cent.
